We go through 58 molecules from PubChem BioAssay AID360 (National Center for Advancing Translational Sciences (NCATS), 2006).

The whole screen tested about 48,000 compounds, of which about 550 (1.1%) were called active. Roughly 4% stayed inconclusive and do not appear here. No stated cut-off is given here; in the data, active means potency below about 15 µM; inconclusive means mostly about 16 µM to 33 µM; inactive means weaker than that. The list shows a part of the results.
Potency means the concentration at half of the fitted maximal effect.

Sequence of UniProt P04062 (P04062 whole entry, looked up): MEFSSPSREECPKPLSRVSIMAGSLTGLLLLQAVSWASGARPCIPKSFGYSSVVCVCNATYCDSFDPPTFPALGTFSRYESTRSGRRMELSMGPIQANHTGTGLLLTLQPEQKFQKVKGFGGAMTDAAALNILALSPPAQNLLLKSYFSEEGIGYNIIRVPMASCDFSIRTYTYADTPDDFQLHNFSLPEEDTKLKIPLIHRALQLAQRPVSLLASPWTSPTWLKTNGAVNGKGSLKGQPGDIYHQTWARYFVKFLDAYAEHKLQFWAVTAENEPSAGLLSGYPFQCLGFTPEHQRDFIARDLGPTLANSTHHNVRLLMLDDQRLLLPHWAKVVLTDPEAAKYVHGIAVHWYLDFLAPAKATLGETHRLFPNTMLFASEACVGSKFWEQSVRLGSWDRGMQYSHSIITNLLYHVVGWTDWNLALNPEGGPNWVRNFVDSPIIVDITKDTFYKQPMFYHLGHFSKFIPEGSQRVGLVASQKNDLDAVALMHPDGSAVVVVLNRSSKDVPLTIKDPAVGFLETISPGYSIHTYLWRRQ

In the test the target is Lysosomal acid glucosylceramidase (Homo sapiens) (UniProt P04062). In words: Glucocerebrosidase.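 Further: the screen sought inhibitors.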 The settings on record: purified enzyme, resorufin glucoside fluorescence (screen aimed at inhibitors), 20 min. In short, it runs like this:
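Compounds titrated against 0.2 nM normal enzyme, 30 uM resorufin beta-D-glucopyranoside substrate, citrate/phosphate buffer with taurocholate and tween-20, pH 5.9. Reaction ran 20 min at room temperature; fluorescence (Ex 548/Em 600) gave AC50.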
With `Cc1ccc(S(=O)(=O)N2CCOCC2)cc1C(=O)Nc1nc(-c2cccnc2)cs1`, the Potency is inactive: > 76.9 µM.
Regarding `CCC1CCC2(CC1)NC(CO)(CO)CO2` (stereo not drawn), the Potency was inactive: > 76.9 µM.
On to `CN1C(=O)CSc2ccc(NC(=O)N3CCC(N4CCCCC4)CC3)cc21`, for which the Potency is inactive: > 76.9 µM.
For the molecule `CCCC(=O)Nc1ccc(N2CCOCC2)cc1`, the Potency is inactive: > 76.9 µM.
Then `COc1ccc(C(c2nnnn2Cc2ccccc2)N2CCN(c3nc4ccccc4s3)CC2)cc1` (stereo not drawn), with inactive: > 15.4 µM.
Then `CC(C)NS(=O)(=O)c1ccc(CCC(=O)O)cc1`, with inactive: > 76.9 µM.
Then `COc1ccc(NC(=O)c2cccc(NC(=O)C3C4CC5OC(=O)C3C5C4)c2)c(OC)c1` (stereo not drawn), with inactive: > 76.9 µM.
For the molecule `COc1cccc2cc(C(=O)NCC3CCCO3)c(=O)oc12` (stereo not drawn), the Potency was inactive: > 76.9 µM.
In the case of `O=C(Nc1ccc(Cl)cc1C(=O)Nc1ccccn1)c1ccco1`, the Potency was inactive: > 76.9 µM.
Then `CCOC(=O)c1cc(-c2ccncc2)nc2c1c(C)nn2-c1ccccn1`, with inactive: > 76.9 µM; and `COc1ccccc1CNC(=O)CN1C(=O)C(C)N(c2ccc(C)cc2)C1=O` (stereo not drawn), with inactive: > 76.9 µM; and `O=C(CNS(=O)(=O)c1cccc2nsnc12)NCc1ccc(Cl)cc1`, with inactive: > 76.9 µM.
Then `C=CCSc1nnc2c(n1)OC=Nc1ccc(Br)cc1-2`, with inactive: > 76.9 µM; and `CC(=O)C1=C(O)C(=O)N(C2CCCCC2)C1c1ccccc1` (stereo not drawn), with inactive: > 76.9 µM; and `O=C(NC1(C(F)(F)F)N=C2SCCN2C1=O)c1ccco1` (stereo not drawn), with inactive: > 76.9 µM.
As for `COC(=O)c1cc(Br)c(=O)n(CCC2=CCCCC2)c1`, the Potency was inactive: > 76.9 µM.
For `Cc1ccc2c(c1)cc(CN(Cc1ccco1)S(=O)(=O)c1ccccc1)c1nnnn12`, the Potency is inactive: > 76.9 µM.
Then `CC(=O)CCCCn1c(=O)c2c(ncn2C)n(C)c1=O`, with inactive: > 76.9 µM; and `COc1ccc2c(c1)CCc1c(C(=O)N3CCCC3)noc1-2`, with inactive: > 76.9 µM; and `CCCN(CCO)Cc1ccc(Cl)c(Cl)c1`, with inactive: > 76.9 µM.
Then `O=C(CCSc1nnc2scc(-c3ccccc3)n12)NCc1ccc2c(c1)OCO2`, with inactive: > 76.9 µM; and `O=C(CSc1nnc(Cc2cc(=O)[nH]c(=O)[nH]2)n1-c1ccccc1)N1CCCc2ccccc21`, with inactive: > 76.9 µM; and `Cc1cc(NC(=O)CCC(=O)N(c2ccc(F)cc2)C(C(=O)NC2CCCC2)c2ccncc2)no1` (stereo not drawn), with inactive: > 76.9 µM.
Turning to `Cc1cc(C(F)(F)F)c(C#N)c(SCC(=O)NC(C)(C)C)n1`, the Potency is inactive: > 76.9 µM.
Then `O=S(=O)(CCn1cccc1)CCn1cccc1`, with inactive: > 76.9 µM; and `O=C1CCCN1CCCn1cnc2c([nH]c3ccc(F)cc32)c1=O`, with inactive: > 76.9 µM.
Regarding `CCOc1ccc(CNC(=O)CCn2c(=O)oc3ccccc32)cc1`, the Potency was inactive: > 76.9 µM.
On to `CC(C)CCNC(=O)C(C)N(Cc1ccc(F)cc1)C(=O)c1ccc(CN2CCCCC2)o1` (stereo not drawn), for which the Potency was inactive: > 76.9 µM.
Turning to `COCCn1c(-c2ccc(OC)c(OC)c2)nc2ccccc21`, the Potency was inactive: > 76.9 µM.
Then `c1cnc(NCCNc2ncccn2)nc1`, with inactive: > 76.9 µM; and `Cn1nc(C(=O)N2CCOCC2)c2ccccc2c1=O`, with inactive: > 76.9 µM; and `O=C(CN1C(=O)C2CC=CCC2C1=O)NC1=NCCS1` (stereo not drawn), with inactive: > 76.9 µM.
Then `Cc1c(NC(=O)CN2C(=O)c3ccccc3S2(=O)=O)c(=O)n(-c2ccccc2)n1C`, with inactive: > 76.9 µM; and `COc1ccc2c(c1)-c1ccccc1S(=O)(=O)N2C(C)=O`, with inactive: > 76.9 µM; and `CCOC(=O)CC1(C)NC(=O)c2c(C)sc(C(=O)OCC)c2N1` (stereo not drawn), with inactive: > 76.9 µM.
As for `COc1cccc(C2=NC(C)(C)NC(c3ccccc3O)C2)c1` (stereo not drawn), the Potency is inactive: > 76.9 µM.
Regarding `CCOC(=O)N1CCN(C(=O)c2oc3ccc(S(=O)(=O)N4CC(C)CC(C)C4)cc3c2C)CC1` (stereo not drawn), the Potency is inactive: > 76.9 µM.
Then `O=C(O)COc1nsnc1N1CCOCC1`, with inactive: > 76.9 µM.
`COC(=O)c1ccccc1NC(=O)C(CCS(C)(=O)=O)NC(C)=O` (stereo not drawn): the Potency was inactive: > 76.9 µM.
Consider `CCCCCC(=O)Nc1ccc(N2CCN(C(=O)CCC)CC2)cc1`, for which the Potency is inactive: > 76.9 µM.
Then `CCc1ccccc1Nc1ccc(C(=O)O)cc1N`, with inactive: > 76.9 µM; and `COC(=O)c1oc2ccccc2c1NC(=O)CN1CCCC1`, with inactive: > 76.9 µM; and `O=C(CCCN1C(=O)c2ccccc2C1=O)NCc1cccnc1`, with inactive: > 76.9 µM.
Regarding `CCCCc1nc2ccccc2c(C(=O)O)c1C`, the Potency is inactive: > 76.9 µM.
Take `Cc1nonc1NC(=O)CSc1nc2cc(Cl)ccc2c2c1CCCC2`: the Potency is inactive: > 76.9 µM.
Then `O=C(Cc1ccccc1)N[C@H](c1ccccc1)P(=O)(O)CO`, with inactive: > 76.9 µM; and `CCCc1cc(=O)[nH]c(SCc2ccc(C#N)cc2)n1`, with inactive: > 76.9 µM; and `CCN1CCCC1CNC(=O)COc1cc(=O)n(C)c2ccccc12` (stereo not drawn), with inactive: > 76.9 µM.
As for `Cc1ccc(-n2nnnc2SCC(=O)Nc2c(C)n(C)n(-c3ccccc3)c2=O)cc1`, the Potency is inactive: > 76.9 µM.
Then `Cc1nc(N2CCN(S(=O)(=O)c3ccc(F)cc3)CC2)c2c(C)c(C)sc2n1`, with inactive: > 76.9 µM; and `COc1cc2c(N3CCOCC3)cc(O)c(CC(=O)Nc3ccccc3)c2cc1OC`, with inactive: > 76.9 µM.
Then `Cc1cc(=O)[nH]c2c1c(=O)[nH]n2C1CC(C)N(C)CC1C` (stereo not drawn), with inactive: > 76.9 µM; and `CC1(C)Cc2ccccc2-c2nnc(-c3ccc(O)cc3)n21`, with active: 8.36 µM; and `Cc1ccc(-c2nnc(SCC(=O)N3CCN(c4ccccc4)CC3)o2)cc1`, with inactive: > 76.9 µM.
Then `Nn1c(COc2ccccc2)nnc1SCC(=O)O`, with inactive: > 76.9 µM; and `O=C(O)C(Cc1ccccc1)n1cccc1` (stereo not drawn), with inactive: > 76.9 µM.
On to `Cc1ccc2cc(CN(Cc3ccc4c(c3)OCO4)Cc3nnnn3Cc3ccco3)c(=O)[nH]c2c1C`, for which the Potency was inactive: > 76.9 µM.
Then `Cc1ccc(N(C(=O)Cn2nnc(-c3ccc(C)o3)n2)C(C(=O)NC2CCCC2)c2ccco2)cc1` (stereo not drawn), with inactive: > 76.9 µM.
